To fix the notation:
T1: RBFOX1 RRM RbFoxmut (Fox-RRM*) (Homo sapiens, UniProt Q9NWB1 109-208, R118D;E147R;N151S;E152T)
T1 sequence: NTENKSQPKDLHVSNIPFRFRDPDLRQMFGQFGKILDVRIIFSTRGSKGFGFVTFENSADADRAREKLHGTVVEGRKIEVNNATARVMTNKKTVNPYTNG

B1: CGUGGGU (DNA:RNA)
RNA: GGGAGACCGGAAUUCAGAUUGUCCCGUGGGUUUAAAUCCCGUCGUAGCCACCA
DNA 1: CAATCTGAATTCCGGTCTCCC
DNA 2: TGGTGGCTACGACGGGATT
B2: CGCGUUG (DNA:RNA)
RNA: B1 RNA with U27C, G29U, G30U, U31G
DNA 1: CAATCTGAATTCCGGTCTCCC
DNA 2: TGGTGGCTACGACGGGATT
B3: ACGCGAG (DNA:RNA)
RNA: B1 RNA with C25A, G26C, U27G, G28C, G30A, U31G
DNA 1: CAATCTGAATTCCGGTCTCCC
DNA 2: TGGTGGCTACGACGGGATT
B4: UGGGGAG (DNA:RNA)
RNA: B1 RNA with C25U, U27G, G30A, U31G
DNA 1: CAATCTGAATTCCGGTCTCCC
DNA 2: TGGTGGCTACGACGGGATT
B5: ACUCAAC (DNA:RNA)
RNA: B1 RNA with C25A, G26C, G28C, G29A, G30A, U31C
DNA 1: CAATCTGAATTCCGGTCTCCC
DNA 2: TGGTGGCTACGACGGGATT
B6: AAGUUGA (DNA:RNA)
RNA: B1 RNA with C25A, G26A, U27G, G28U, G29U, U31A
DNA 1: CAATCTGAATTCCGGTCTCCC
DNA 2: TGGTGGCTACGACGGGATT
B7: GUAAAGC (DNA:RNA)
RNA: B1 RNA with C25G, G26U, U27A, G28A, G29A, U31C
DNA 1: CAATCTGAATTCCGGTCTCCC
DNA 2: TGGTGGCTACGACGGGATT
B8: GCGACUC (DNA:RNA)
RNA: GGGAGACCGGAAUUCAGAUUGUCCGCGACUCUUAAAUCCCGUCGUAGCCACCA
DNA 1: CAATCTGAATTCCGGTCTCCC
DNA 2: TGGTGGCTACGACGGGATT
B9: CAACCUC (DNA:RNA)
RNA: B8 RNA with G25C, C26A, G27A, A28C
DNA 1: CAATCTGAATTCCGGTCTCCC
DNA 2: TGGTGGCTACGACGGGATT

Positions count from the first letter of the chain named. The list shows a part of the results.

This experiment concerns the target T1, RBFOX1 RRM RbFoxmut (Fox-RRM*). Kind of experiment: EMSA; HiTS-Eq, 1 nM pool, 10 min; buffer printed only for the single-RNA assays: 10 mM Tris pH 7.5, 150 mM NaCl, 3.4 mM EDTA, 0.001% NP-40, 30 C. The conditions noted are these: tags: His6 N-terminal (pET28a); label: 5' 32P. A digest of the protocol:
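A pool of RNA with 7 randomized nucleotides, 5′-radiolabelled and with DNA-annealed flanks, was equilibrated at 1 nM for 10 min in 50 µL with purified RbFox RRM, wild type or mutant, across increasing protein concentrations. Free RNA was separated by 8% native PAGE, excised, reverse-transcribed, barcoded by PCR and sequenced. Relative association constants were obtained from read-count changes of each RNA species versus the control reaction and normalised to the cognate motif.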
For the molecule B1, the binding signal is 0.129 KA relative to UGCAUGU. The same measure for B2: 0.139 KA relative to UGCAUGU; for B3: 0.132 KA relative to UGCAUGU. For the molecule B4, the binding signal is 0.135 KA relative to UGCAUGU. On to B5, for which the binding signal is 0.034 KA relative to UGCAUGU. As to B6, the binding signal is 0.107 KA relative to UGCAUGU. As to B7, the binding signal was 0.0769 KA relative to UGCAUGU. Turning to B8, the binding signal was 0.0666 KA relative to UGCAUGU. B9: the binding signal is 0.055 KA relative to UGCAUGU.

The record behind these values is paper PMC9911399, “Two distinct binding modes provide the RNA-binding protein RbFox with extraordinary sequence specificity”.
